Assay results as given in PubChem BioAssay AID445 (National Center for Advancing Translational Sciences (NCATS), 2006).
The whole screen tested about 110,000 compounds, of which about 40 (0.04%) were called active. The shares of active, inactive and inconclusive entries below differ from those in the screen. The call rests on the fitted dose curve; in most records, active means well fitted curve in the direction sought with a large enough effect in the signal ratio (not every such curve was filed as active); inconclusive means small, poorly fitted or top-dose-only effect, or a change in a side signal; inactive means flat fitted curve, though single readings scatter; the % refers to the signal ratio. Potencies of inconclusive entries are doubtful fits and often do not repeat.

Experiment: IkB Signaling;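 on IkBa stabilization activation: 0% = basal untreated cells and 100% = reference inhibitor full response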
Conditions: ABC-DLBCL IkBa-CBG/CBR dual luciferase ratio (green luciferase fused to IkBa over red control in OCI-Ly3 lymphoma cells), 4 h; IkBa stabilization activation: at 57.1 µM (top of the series), scaled: untreated 0%, proteasome inhibitor 100% unless noted
Procedure, shortened: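 Luminescence ratio of IκBα-fused green versus native red beetle luciferase in OCI-Ly3 cells, 4 h post-doxycycline with compound; red signal alone, scaled from basal (0%) to zero light (-100%), flagged nonspecific or cytotoxic effects.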
Potency means the concentration at half of the fitted maximal effect.

Compound	IkBa stabilization activation	Potency
O=C(O)/C=C\C(=O)Nc1cccc2c1-c1ccccc1C2=O	inactive: 1.5% [at 11.4 µM, scaled: untreated 0%, proteasome inhibitor 100%]	–
COc1ccc(-n2cc(C(=O)NCCc3ccc(C)cc3)c3ccccc3c2=O)cc1	inconclusive: -0.786% [signal inhibitor]	–
CC1CCCCN1C(=O)CSc1nc2ccccc2nc1Cc1ccccc1 (centres undefined)	inconclusive: 1.87% [signal inhibitor]	–
CCOc1ccc(N2C(=O)c3[nH]nc(-c4ccccc4)c3C2c2ccc(O)c(OC)c2)cc1 (centres undefined)	inconclusive: 0.504% [signal inhibitor]	–
COC(=O)Nc1c(-c2ccccc2)nc2ccc(C)cn12	inconclusive: 2.52% [signal inhibitor]	–
CCc1ccc(NC(=O)CC2C(=O)N(c3cccc(C)c3)C(=O)N2Cc2cccc(OC)c2)cc1 (centres undefined)	inactive	–
COc1ccc(CCNS(=O)(=O)c2ccc3c(c2)c(=O)n(C)c(=O)n3C)cc1OC	inconclusive: -0.289% [signal inhibitor]	–
Cc1ccc(NC(=O)c2nc(S(C)(=O)=O)ncc2N(Cc2cccc(F)c2)Cc2ccco2)cc1C	inconclusive: 5.82% [signal inhibitor]	–
Cc1cccc(OCC(=O)Nc2cccc(O)c2)c1	inactive	–
CCOc1ccccc1N1CCN(CC(O)COc2ccc3c(C)cc(=O)oc3c2)CC1 (centres undefined)	inconclusive: -0.636% [signal inhibitor]	–
O=C(CSc1ccccc1)Nc1ccc(S(=O)(=O)NCC2CCCO2)cc1 (centres undefined)	–	inconclusive: 20 µM [signal inhibitor, partial curve]
CC(=O)Oc1ccc(/C=C\C(=O)C[C@@H]2O[C@@H](Oc3cc(OC(C)=O)c4c(c3)O[C@@H](c3ccc(OC(C)=O)cc3)CC4=O)[C@H](OC(C)=O)[C@H](OC(C)=O)[C@@H]2OC(C)=O)cc1	inactive: -0.531% [at 11.4 µM, scaled: untreated 0%, proteasome inhibitor 100%]	–
CCOc1ccc(CNC(=O)Cn2nc(C)c3nn(-c4ccc(Cl)cc4)c(C)c3c2=O)cc1	inactive	–
COc1ccc(N2CCN(C(=O)C(C)(C)Oc3ccc(Cl)cc3)CC2)cc1	inconclusive: 2.28% [signal inhibitor]	–
Cc1ccc(CNC(=O)c2oc3ccc(S(=O)(=O)N4CCCC(C)C4)cc3c2C)cc1 (centres undefined)	inconclusive: -0.172% [signal inhibitor]	–
Cc1ccc2c(CC(=O)N3CCN(c4cccc(Cl)c4)CC3)coc2c1	inconclusive: -0.627% [signal inhibitor]	–
CCCCNc1ccc(-c2nc(-c3ccccc3)no2)cc1[N+](=O)[O-]	inconclusive: 11.5% [signal inhibitor]	–
COc1ccc(-n2c(=O)c(-c3cccc(C#N)c3)nc3cnc(N4CCNCC4)nc32)cc1	inactive: -0.699% [at 11.4 µM, scaled: untreated 0%, proteasome inhibitor 100%]	–
C=CCOC(=O)CCC(=O)Nc1cc(OC)nc(OC)n1	inconclusive: 2.09% [signal inhibitor]	–
Cc1cc(C)cc(NC(=O)Cn2nnc(C(=O)NCCc3ccccc3)c2N)c1	inactive	–
CCOc1ccc(C(=O)NCCc2sc(-c3ccc(C)cc3)nc2C)cc1	inconclusive: 0.231% [signal inhibitor]	–
O=C(Nc1nc2c(s1)CCc1ccccc1-2)c1ccco1	inconclusive: 8.02% [signal inhibitor]	–
COc1ccccc1CNc1nc(-c2ccccc2CN(C)C)nc2ccccc12	inactive: -2.8% [at 11.4 µM, scaled: untreated 0%, proteasome inhibitor 100%]	–

Compound	IkBa stabilization activation	Potency
COc1cccc(OCCSc2nnc3sc4ccccc4n23)c1	inconclusive: 1.46% [signal inhibitor]	–
O=C(c1ccccc1)c1ccc(N2CCOCC2)c(F)c1	inactive	–
CC1CCC(NC(=O)c2ccc3c(c2)N(Cc2ccccc2F)C(=O)c2ccccc2S3)CC1 (centres undefined)	inactive	–
NCCNCCNCCN	inactive	–
CC1CCN(S(=O)(=O)c2ccc3c(c2)N(CC(=O)NCc2ccccc2Cl)C(=O)CS3)CC1	inconclusive: 2% [signal inhibitor]	–
O=C(Nc1ccc2c(c1)OCO2)C1CCCN(c2nc3ccccc3s2)C1 (centres undefined)	inconclusive: 6.64% [signal inhibitor]	–
COc1cc(OC)c(NC(=O)Nc2nnc(N(C)C3CCCCC3)s2)cc1Cl	inactive	–
CC1CCN(CC(=O)N2CCCc3c2c(=O)oc2ccc(OCc4ccccc4)cc32)CC1	inconclusive: 2.6% [signal inhibitor]	–
CC1(C(=O)Nc2cccc(C(F)(F)F)c2)Cc2ccccc2C(=O)O1 (centres undefined)	inactive	–
Cc1ccc(Cn2c(NC(=O)c3ccco3)nc3ccccc32)cc1	inconclusive: 1.45% [signal activator]	–
CCCNc1nc2c(c(=O)[nH]c(=O)n2C)n1CCC(C)C	inactive	–
CC1=C(C(=O)Nc2c(C)cc(C)cc2C)C2(CCN(C(C)C)CC2)OC1=O	inactive	–
CCCCCSc1nc2c(c(=O)[nH]c(=O)n2C)n1CC	inactive	–
CC(C)CCN1C(=O)N(c2ccccc2)C(=O)C1CC(=O)Nc1ccc(Cl)cc1 (centres undefined)	inconclusive: 5.17% [signal inhibitor]	–
O=C(NC1CCCC1)c1ccc2nc(-c3ccco3)c(-c3ccco3)nc2c1	inconclusive: 4.88% [signal inhibitor]	–
Cn1c(CSc2nc3ccc(Br)cc3[nH]2)nc2ccccc21	inconclusive: -2.9% [signal inhibitor]	–
COC(=O)c1sccc1S(=O)(=O)N(CC(=O)NCc1ccc(F)cc1)c1ccc(Cl)cc1	inconclusive: 3.18% [signal inhibitor]	–
Cc1oc(-c2cccc(Cl)c2)nc1Cn1c(SCc2ccccc2F)nc2ccncc21	inconclusive: -2.99% [signal inhibitor]	–
Cc1cccc(NC(=O)CSc2nc3ccc(NC(=O)COc4ccccc4F)cc3s2)c1	inactive	–
Cc1ccc(NC(=O)C2CCCN2S(=O)(=O)c2ccc3c(c2)CCCC(=O)N3)cc1Cl (centres undefined)	inconclusive: 1.45% [signal inhibitor]	–
O=C(CSc1ccc2nc(-c3ccccc3)cn2n1)Nc1cccc(F)c1	inconclusive: 2.91% [signal inhibitor]	–
CS(=O)(=O)c1nc(-c2ccccc2)cc(C(F)(F)F)n1	–	inconclusive: 5.01 µM [signal inhibitor, single point]
Oc1ccccc1-c1nnc(-c2ccc(C(F)(F)F)cc2)o1	inactive	–

Compound	IkBa stabilization activation	Potency
COC(=O)Cn1c(CN2CCc3ccccc3C2)nc2c1c(=O)n(C)c(=O)n2C	inactive	–
Cc1ccc(-c2cc(C(F)F)n3ncc(C(=O)N4CCN(c5ccccn5)CC4)c3n2)cc1	inconclusive: -2.84% [signal inhibitor]	–
CCN(CC)CCCNC(=O)CN1N=C(c2ccccc2)CCC1=O	inactive	–
O=[N+]([O-])c1ccc(Nc2nc3ccccc3s2)cc1	–	inconclusive: 6.31 µM [signal inhibitor, single point]
CCSc1nn(CC(=O)Nc2ccc(C(=O)OC)cc2)c(N)c1S(=O)(=O)c1ccc(C)cc1	inconclusive: 12.9% [signal inhibitor]	–
O=C(Nc1ccc(F)cc1)N1CCN(C(=O)c2nsc3ccccc23)CC1	inactive	–
COc1cccc(-n2nnc(-c3nc(-c4ccccc4F)no3)c2C)c1	inactive	–
COC(=O)c1cc(NC(=O)c2ccc3c(c2)NC(=O)c2ccccc2S3)cc(C(=O)OC)c1	inconclusive: 15.7% [signal activator]	–
CSc1cccc(NC(=O)Cn2ncn3c(cc4ccccc43)c2=O)c1	inconclusive: 2.74% [signal inhibitor]	–
Fc1ccccc1N1CCN(c2ncc3c(n2)CCN(Cc2cc(Br)cs2)C3)CC1	inconclusive: 0.911% [signal inhibitor]	–
COc1ccc(OC)c(CNC(=O)CN2CC(C)Sc3ccccc32)c1 (centres undefined)	inactive	–
Cc1ccc(Cl)cc1N1CCN(C(=O)c2cc3c(-c4ccccc4F)nn(C)c3s2)CC1	inactive	–
COc1ccc(NC(=O)CSc2nc(-c3ccco3)cc(C(F)(F)F)n2)cc1Cl	inconclusive: 5.1% [signal inhibitor]	–
Fc1ccc(-c2cn3cc(Cc4ccccc4)sc3n2)cc1	–	inconclusive: 31.6 µM [signal inhibitor, partial curve]
COc1cccc2cc(C(=O)NCC3CCCO3)c(=O)oc12 (centres undefined)	inconclusive: 16.5% [signal inhibitor]	–
CCCCS(=O)(=O)c1nc(-c2ccc(Br)cc2)cc(-c2ccccc2)c1C#N	–	active: 3.16 µM
CCOC(=O)c1cc(-c2ccncc2)nc2c1c(C)nn2-c1ccccn1	inactive	–
O=C(Nc1ccc(Cl)cc1C(=O)Nc1ccccn1)c1ccco1	inconclusive: 1.19% [signal inhibitor]	–
Cc1cccc(NC(=O)CCc2c(C)nc3c(c(C)nn3C(C)(C)C)c2C)c1C	inconclusive: 1.15% [signal inhibitor]	–
CC1CCc2c(sc3nnn(CC(=O)Nc4ccc(Cl)cc4)c(=O)c23)C1 (centres undefined)	inconclusive: 6.37% [signal inhibitor]	–
Cc1ccc(N2CCN(S(=O)(=O)c3ccc4[nH]c5c(c4c3)CCCCC5)CC2)c(C)c1	inconclusive: -0.866% [signal inhibitor]	–
CCN(C(=O)c1cn(CC)c(=O)c2cc(OC)c(OC)cc12)c1ccc(C)c(C)c1	inconclusive: 4.95% [signal inhibitor]	–
O=C(CSc1ncccc1-c1nc2ccccc2[nH]1)NCc1ccco1	–	inconclusive: 31.6 µM [rising, partial curve]
